According to the supplement of paper PMC4967469:
A lower IC50 marks a more sensitive line; a fit beyond the top or the lowest dose is shown as a bound at that dose. AUC sums up the same curve from the lowest dose to the 256-fold higher top dose; the more sensitive the line, the further below 1. Where the top dose is marked as inferred, it was calculated from the reported fits. For part of these data: Where an entry number is given, a second screen of the drug exists; the two often differ.

Assays:
[1] = compound: O=c1[nH]c2ccccc2n1C1CCN(Cc2ccc(-c3[nH]c4cc5ncnc5cc4nc3-c3ccccc3)cc2)CC1 [AKT inhibitor VIII]; assay: Viability of human cancer cell lines after 72 h of drug (GDSC screen); settings: top dose inferred
Method: (§1)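 Human cancer cell lines in 384-well plates, medium with 10% serum, drug for 72 h over a 256-fold dose range (nine 2-fold or five 4-fold steps up to the top dose). Adherent lines were fixed and stained with the nucleic acid dye Syto60, suspension lines read with resazurin; signal relative to control wells, capped at 0 and 100%. One two-parameter sigmoid per drug and line, fitted in a mixed model over all curves with the slope shared within a line.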

[2] = compound: NC(=O)c1ncn([C@@H]2O[C@H](CO)[C@@H](O)[C@H]2O)c1N [AICAR]; assay: as above; settings: top dose 2000 µM; top dose inferred
Method: as §1

[3] = top dose 2.56 µM, screen: GDSC drug entry 171
[4] = top dose 10.24 µM, screen: GDSC drug entry 228

HN (head and neck, adherent)
AUC [1, 3]: 0.966
IC50 [1, 3]: > 2.56 µM
AUC [1, 4]: 0.989
IC50 [1, 4]: > 10.2 µM
AUC [2]: 0.675
IC50 [2]: 372 µM

HO-1-u-1 (head and neck, adherent)
AUC [1, 3]: 0.934
IC50 [1, 3]: > 2.56 µM
AUC [1, 4]: 0.889
IC50 [1, 4]: > 10.2 µM
AUC [2]: 0.865
IC50 [2]: 1640 µM

HOP-62 (lung adenocarcinoma, adherent)
AUC [1, 3]: 0.958
IC50 [1, 3]: > 2.56 µM
AUC [1, 4]: 0.867
IC50 [1, 4]: 9.22 µM
AUC [2]: 0.896
IC50 [2]: > 2000 µM

HOP-92 (large cell lung carcinoma, adherent)
AUC [1, 3]: 0.913
IC50 [1, 3]: > 2.56 µM
AUC [1, 4]: 0.982
IC50 [1, 4]: > 10.2 µM
AUC [2]: 0.859
IC50 [2]: > 2000 µM

HOS (osteosarcoma, adherent)
AUC [1, 3]: 0.964
IC50 [1, 3]: > 2.56 µM
AUC [1, 4]: 0.95
IC50 [1, 4]: > 10.2 µM
AUC [2]: 0.905
IC50 [2]: 1910 µM

HSC-2 (head and neck, adherent)
AUC [1, 3]: 0.939
IC50 [1, 3]: > 2.56 µM
AUC [1, 4]: 0.988
IC50 [1, 4]: > 10.2 µM
AUC [2]: 0.812
IC50 [2]: 971 µM

HSC-4 (head and neck, adherent)
AUC [1, 3]: 0.958
IC50 [1, 3]: > 2.56 µM
AUC [1, 4]: 0.972
IC50 [1, 4]: > 10.2 µM
AUC [2]: 0.793
IC50 [2]: 1270 µM

HT55 (large intestine, adherent)
AUC [1, 4]: 0.99
IC50 [1, 4]: > 10.2 µM
AUC [2]: 0.973
IC50 [2]: > 2000 µM

HT (B-cell lymphoma, suspension)
AUC [1, 3]: 0.962
IC50 [1, 3]: > 2.56 µM
AUC [1, 4]: 0.841
IC50 [1, 4]: 6.28 µM
AUC [2]: 0.862
IC50 [2]: 1480 µM

HT-3 (cervix, adherent)
AUC [1, 3]: 0.958
IC50 [1, 3]: > 2.56 µM
AUC [1, 4]: 0.918
IC50 [1, 4]: > 10.2 µM
AUC [2]: 0.733
IC50 [2]: 586 µM

HT-29 (large intestine, adherent)
AUC [1, 3]: 0.865
IC50 [1, 3]: 2.26 µM
AUC [1, 4]: 0.948
IC50 [1, 4]: > 10.2 µM
AUC [2]: 0.893
IC50 [2]: > 2000 µM

HT-115 (large intestine, adherent)
AUC [1, 3]: 0.985
IC50 [1, 3]: > 2.56 µM
AUC [1, 4]: 0.935
IC50 [1, 4]: > 10.2 µM
AUC [2]: 0.976
IC50 [2]: > 2000 µM

HT-1080 (fibrosarcoma, adherent)
AUC [1, 3]: 0.986
IC50 [1, 3]: > 2.56 µM
AUC [1, 4]: 0.989
IC50 [1, 4]: > 10.2 µM
AUC [2]: 0.872
IC50 [2]: 1560 µM

HT-1197 (bladder, adherent)
AUC [1, 3]: 0.974
IC50 [1, 3]: > 2.56 µM
AUC [1, 4]: 0.948
IC50 [1, 4]: > 10.2 µM
AUC [2]: 0.921
IC50 [2]: > 2000 µM

HT-1376 (bladder, adherent)
AUC [1, 3]: 0.969
IC50 [1, 3]: > 2.56 µM
AUC [1, 4]: 0.985
IC50 [1, 4]: > 10.2 µM
AUC [2]: 0.839
IC50 [2]: 1720 µM

HUTU-80 (digestive system, adherent)
AUC [1, 3]: 0.934
IC50 [1, 3]: > 2.56 µM
AUC [1, 4]: 0.867
IC50 [1, 4]: 6.73 µM
AUC [2]: 0.958
IC50 [2]: > 2000 µM

Hep 3B2_1-7 (liver, adherent)
AUC [1, 3]: 0.944
IC50 [1, 3]: > 2.56 µM
AUC [1, 4]: 0.987
IC50 [1, 4]: > 10.2 µM
AUC [2]: 0.93
IC50 [2]: > 2000 µM

Hey (ovary, adherent)
AUC [1, 4]: 0.937
IC50 [1, 4]: > 10.2 µM
AUC [2]: 0.851
IC50 [2]: 1400 µM

Hs633T (fibrosarcoma, adherent)
AUC [1, 3]: 0.975
IC50 [1, 3]: > 2.56 µM
AUC [1, 4]: 0.942
IC50 [1, 4]: > 10.2 µM
AUC [2]: 0.969
IC50 [2]: > 2000 µM

Hs683 (glioma, adherent)
AUC [1, 3]: 0.921
IC50 [1, 3]: > 2.56 µM
AUC [1, 4]: 0.873
IC50 [1, 4]: 10.1 µM
AUC [2]: 0.966
IC50 [2]: > 2000 µM

Hs746T (stomach, adherent)
AUC [1, 3]: 0.971
IC50 [1, 3]: > 2.56 µM
AUC [1, 4]: 0.746
IC50 [1, 4]: 4.25 µM
AUC [2]: 0.772
IC50 [2]: 1060 µM

Hs766T (pancreas, adherent)
AUC [1, 3]: 0.844
IC50 [1, 3]: > 2.56 µM
AUC [1, 4]: 0.956
IC50 [1, 4]: > 10.2 µM
AUC [2]: 0.891
IC50 [2]: > 2000 µM

Hs939-T (melanoma, adherent)
AUC [1, 3]: 0.978
IC50 [1, 3]: > 2.56 µM
AUC [1, 4]: 0.986
IC50 [1, 4]: > 10.2 µM
AUC [2]: 0.983
IC50 [2]: > 2000 µM

Hs-578-T (breast, adherent)
AUC [1, 3]: 0.972
IC50 [1, 3]: > 2.56 µM
AUC [1, 4]: 0.987
IC50 [1, 4]: > 10.2 µM
AUC [2]: 0.958
IC50 [2]: > 2000 µM

HuCCT1 (biliary tract, adherent)
AUC [1, 3]: 0.94
IC50 [1, 3]: > 2.56 µM
AUC [1, 4]: 0.918
IC50 [1, 4]: > 10.2 µM
AUC [2]: 0.827
IC50 [2]: 1410 µM

HuH-7 (liver, adherent)
AUC [1, 3]: 0.936
IC50 [1, 3]: > 2.56 µM
AUC [1, 4]: 0.977
IC50 [1, 4]: > 10.2 µM
AUC [2]: 0.935
IC50 [2]: > 2000 µM

HuO9 (osteosarcoma, adherent)
AUC [1, 3]: 0.808
IC50 [1, 3]: 1.5 µM
AUC [1, 4]: 0.716
IC50 [1, 4]: 2.83 µM
AUC [2]: 0.806
IC50 [2]: 1160 µM

HuO-3N1 (osteosarcoma, adherent)
AUC [1, 3]: 0.922
IC50 [1, 3]: > 2.56 µM
AUC [1, 4]: 0.904
IC50 [1, 4]: > 10.2 µM
AUC [2]: 0.826
IC50 [2]: 1770 µM

HuP-T3 (pancreas, adherent)
AUC [1, 3]: 0.929
IC50 [1, 3]: > 2.56 µM
AUC [1, 4]: 0.937
IC50 [1, 4]: > 10.2 µM
AUC [2]: 0.776
IC50 [2]: 980 µM

HuP-T4 (pancreas, adherent)
AUC [1, 3]: 0.979
IC50 [1, 3]: > 2.56 µM
AUC [1, 4]: 0.769
IC50 [1, 4]: 4.11 µM
AUC [2]: 0.931
IC50 [2]: > 2000 µM

IA-LM (large cell lung carcinoma, adherent)
AUC [1, 3]: 0.86
IC50 [1, 3]: > 2.56 µM
AUC [1, 4]: 0.876
IC50 [1, 4]: > 10.2 µM
AUC [2]: 0.78
IC50 [2]: 927 µM

IGR-1 (melanoma, adherent)
AUC [1, 3]: 0.965
IC50 [1, 3]: > 2.56 µM
AUC [1, 4]: 0.93
IC50 [1, 4]: > 10.2 µM
AUC [2]: 0.954
IC50 [2]: > 2000 µM

IGR-37 (melanoma, adherent)
AUC [1, 3]: 0.986
IC50 [1, 3]: > 2.56 µM
AUC [1, 4]: 0.983
IC50 [1, 4]: > 10.2 µM
AUC [2]: 0.967
IC50 [2]: > 2000 µM

IHH-4 (thyroid, semi-adherent)
AUC [1, 3]: 0.971
IC50 [1, 3]: > 2.56 µM
AUC [1, 4]: 0.977
IC50 [1, 4]: > 10.2 µM
AUC [2]: 0.928
IC50 [2]: > 2000 µM

IM-9 (myeloma, suspension)
AUC [1, 3]: 0.992
IC50 [1, 3]: > 2.56 µM
AUC [2]: 0.951
IC50 [2]: > 2000 µM

IPC-298 (melanoma, adherent)
AUC [1, 3]: 0.975
IC50 [1, 3]: > 2.56 µM
AUC [1, 4]: 0.966
IC50 [1, 4]: > 10.2 µM
AUC [2]: 0.93
IC50 [2]: > 2000 µM

IST-MEL1 (melanoma, adherent)
AUC [1, 3]: 0.913
IC50 [1, 3]: > 2.56 µM
AUC [1, 4]: 0.896
IC50 [1, 4]: > 10.2 µM
AUC [2]: 0.933
IC50 [2]: > 2000 µM

IST-SL1 (small cell lung carcinoma, semi-adherent)
AUC [1, 3]: 0.962
IC50 [1, 3]: > 2.56 µM
AUC [1, 4]: 0.793
IC50 [1, 4]: 4.85 µM
AUC [2]: 0.949
IC50 [2]: > 2000 µM
